# Source: the supplement of paper PMC4166925
# ± gives the standard deviation of the averaged measurements. The full ranking holds about 33,000 sequences; the median of “E-score (dimensionless, -0.5 to 0.5)” is about -0.049, and the highest 2% start at about 0.37. Some of the results follow.
# Tested on: T1, PmTbr T-box DNA-binding domain (GST fusion)
# T1 sequence: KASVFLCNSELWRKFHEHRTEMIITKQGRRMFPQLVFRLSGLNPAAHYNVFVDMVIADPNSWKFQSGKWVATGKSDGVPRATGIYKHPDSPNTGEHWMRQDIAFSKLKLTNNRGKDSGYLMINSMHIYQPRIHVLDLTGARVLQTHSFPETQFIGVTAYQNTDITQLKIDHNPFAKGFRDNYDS
# Assay: PBM E-score of 8-mer (E-score (dimensionless, -0.5 to 0.5)); Tbr is Tbrain of the sea star Patiria miniata (Pm) or the sea urchin Strongylocentrotus purpuratus (Sp); higher = stronger binding preference; most listed sequences are background and not binding sites
# Settings: the construct has about 5 more residues each side
# How it was run: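 GST-fused Tbr T-box DNA-binding domains (the whole T-box plus about five flanking residues) were expressed in BL21 E. coli at 20 °C and purified by glutathione affinity chromatography. Universal Agilent oligonucleotide arrays were made double-stranded by primer extension, incubated with 200 nM protein in PBS (pH 7.5), then scanned and quantified. Every ungapped 8-mer was scored from probe intensities. The Universal PBM Analysis Suite gave each word an enrichment E-score, averaged over duplicate arrays.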
row,Sequence,PBM E-score of 8-mer
1,AATAAAGG,-0.228 ± 0.0042
2,TGAGTTAA,-0.141 ± 0.077
3,AGCTCCTG,-0.0536 ± 0.084
4,AGAAGCCG,-0.187 ± 0.012
5,CCCAAGAG,-0.0986 ± 0.002
6,AGGGCACC,-0.13 ± 0.0072
7,AGCGACTC,0.0803 ± 0.0075
8,GTGGTGTA,0.1994 ± 0.0016
9,GCTAGTCA,-0.0356 ± 0.004
10,GGTGAAAA,0.2007 ± 0.0014
11,CGCAGAGA,-0.2281 ± 0.001
12,AATAAATA,-0.162 ± 0.023
13,CATGGATC,-0.135 ± 0.015
14,AGTATGCC,-0.161 ± 0.15
15,CTAGCTCA,-0.0717 ± 0.031
16,AGGAGCAA,-0.0899 ± 0.02
17,CTGGTCGA,-0.0334 ± 0.002
18,GATAGTTA,0.09234 ± 0.00081
19,AATTCGAA,-0.254 ± 0.07
20,ACGGTTTC,0.00425 ± 0.025
21,ACGTCTCA,-0.0332 ± 0.033
22,GCACATAC,0.21 ± 0.02

row,Sequence,PBM E-score of 8-mer
1,CACGTGAG,0.188 ± 0.011
2,CCGCAAAG,-0.232 ± 0.0091
3,GCCCGATA,-0.107 ± 0.056
4,CGTAGTAA,-0.0775 ± 0.049
5,AATGCGAT,0.024 ± 0.0098
6,ACAGACGA,-0.24 ± 0.0034
7,AATCCAGG,-0.0711 ± 0.054
8,TCCGAGCA,-0.234 ± 0.0011
9,AAGATATG,-0.00924 ± 0.0019
10,GAAGGCAA,-0.161 ± 0.079
11,ACCTAGCA,0.271 ± 0.018
12,CCAAAGGC,0.0614 ± 0.038
13,ACGTCAGC,-0.126 ± 0.061
14,AGCCAATC,-0.0275 ± 0.0016
15,GCTATGAC,0.0747 ± 0.036
16,CCGTCACG,0.23 ± 0.065
17,GAGTGGAA,0.0808 ± 0.014
18,AGGGCCAA,-0.31 ± 0.063
19,TGATTGCA,0.0943 ± 0.049
20,ACCCGCAC,0.202 ± 0.062
21,CAGGGATC,-0.0878 ± 0.057
22,GACAAATA,0.142 ± 0.029

row,Sequence,PBM E-score of 8-mer
1,AGGACTCG,-0.0254 ± 0.07
2,CAGACGGG,0.0786 ± 0.0097
3,AGGATTGC,0.0509 ± 0.034
4,AAATCCCG,-0.135 ± 0.038
5,CGCCGCTC,-0.231 ± 0.024
6,ATGATATC,0.0392 ± 0.088
7,CCCCACGC,-0.0993 ± 0.028
8,ATGAGCCA,-0.233 ± 0.022
9,CCCGCCTA,-0.00776 ± 0.11
10,GGATTAAC,0.0329 ± 0.085
11,CGTCTAGC,-0.0353 ± 0.096
12,AATAAGAC,-0.0961 ± 0.025
13,AAGCCCGA,-0.0694 ± 0.029
14,ATCGACCA,0.148 ± 0.015
15,CGAGAATC,0.203 ± 0.038
16,ACACAATC,0.242 ± 0.037
17,TGTCAGAA,0.17 ± 0.033
18,ACGTTGAA,0.0133 ± 0.026
19,ATGCAACC,0.0283 ± 0.0036
20,GCTACAAA,-0.0924 ± 0.012
21,CACTATTC,0.074 ± 0.0016
22,AAGGATGA,-0.184 ± 0.088

row,Sequence,PBM E-score of 8-mer
1,CATGCACG,0.122 ± 0.0017
2,AAGTTCGG,-0.00611 ± 0.0034
3,CTGGACCA,-0.115 ± 0.0055
4,AAGAGATG,-0.132 ± 0.085
5,GGTGCCAA,0.454 ± 0.006
6,ACACTTGG,0.395 ± 0.0073
7,ATCGGCTC,-0.223 ± 0.062
8,ACTTCGAG,0.159 ± 0.0079
9,AGAATTCC,-0.115 ± 0.053
10,AGACGTTA,-0.144 ± 0.038
11,GACCTTGA,-0.166 ± 0.025
12,AGGTAGGG,-0.0541 ± 0.14
13,AAACATCA,-0.107 ± 0.043
14,GGGTCTAC,-0.2753 ± 0.0013
15,GGTCAGGA,-0.113 ± 0.042
16,CTGTTAGA,0.118 ± 0.0087
17,GGATAGCA,0.102 ± 0.025
18,CTTCCTAC,-0.225 ± 0.029
19,CTAACTTA,-0.143 ± 0.0033
20,GAACCAGC,-0.0953 ± 0.0037
